# Measured values published in the supplement of paper PMC8728848.
# The other results are listed elsewhere or left out.
# B1: MAL (Maackia amurensis) (protein)
# chain: SDELSFTINNFMPNQGDLLFQGVATVSPTGVLQLTSEENGQPLEYSVGRVLYTAPVRIWDSTTGAVASFSTSFTFVVKAARGASDGLAFFLAPPDSQIPSGSVSKYLGLFNNSNSDSSNQIVAVEFDTYFGHSYDPWDPNYRHIGIDVNGIESIKTVQWDWINGGVAFATITYLAPNKTLIASLVYPSNQTSFIVAASVDLKEILPEWVRVGFSAATGAPKAVETHDVRSWSFTSTLEANSPADVDN
# Assays:
# Experiment in all cases: glycan array binding signal (z-score within array); higher = stronger binding
# Conditions in all cases: glycan notation: IUPAC condensed, linker removed
# [1] = target: Neu5Ac(a2-3)Gal(b1-3)[Neu5Ac(a2-6)]GalNAc
# Procedure, shortened: (§1)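 Glycan array binding is given as a within-array Z-score, which can be read as non-binding when negative. The arrays, 3228 of them, came from the Consortium for Functional Glycomics database and were retained only where the protein sequence was available. Z-scores were averaged across arrays of the same protein sequence at different concentrations or buffers and across linkers.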
# [2] = target: Neu5Ac(a2-3)Gal(b1-4)Glc
# Procedure, shortened: as §1
# [3] = target: Neu5Ac(a2-3)Gal(b1-4)GlcNAc
# Procedure, shortened: as §1
# [4] = target: Neu5Ac(a2-3)Gal(b1-4)GlcNAc(b1-2)Man(a1-3)[Neu5Ac(a2-3)Gal(b1-4)GlcNAc(b1-2)Man(a1-6)]Man(b1-4)GlcNAc(b1-4)GlcNAc
# Procedure, shortened: as §1
# [5] = target: Neu5Ac(a2-3)Gal(b1-4)GlcNAc(b1-3)Gal(b1-4)GlcNAc
# Procedure, shortened: as §1
# [6] = target: Neu5Ac(a2-3)Gal(b1-4)GlcNAc(b1-3)Gal(b1-4)GlcNAc(b1-3)Gal(b1-4)GlcNAc
# Procedure, shortened: as §1
# [7] = target: Neu5Ac(a2-3)Gal(b1-4)GlcNAc(b1-3)Gal(b1-4)[Fuc(a1-3)]GlcNAc
# Procedure, shortened: as §1
# [8] = target: Neu5Ac(a2-3)Gal(b1-4)GlcNAc6S
# Procedure, shortened: as §1
# [9] = target: Neu5Ac(a2-3)Gal(b1-4)[Fuc(a1-3)]GlcNAc
# Procedure, shortened: as §1
# [10] = target: Neu5Ac(a2-3)Gal(b1-4)[Fuc(a1-3)]GlcNAc(b1-3)Gal
# Procedure, shortened: as §1
# [11] = target: Neu5Ac(a2-3)Gal(b1-4)[Fuc(a1-3)]GlcNAc(b1-3)Gal(b1-4)GlcNAc
# Procedure, shortened: as §1
# [12] = target: Neu5Ac(a2-3)Gal(b1-4)[Fuc(a1-3)]GlcNAc(b1-3)Gal(b1-4)[Fuc(a1-3)]GlcNAc(b1-3)Gal(b1-4)[Fuc(a1-3)]GlcNAc
# Procedure, shortened: as §1
# [13] = target: Neu5Ac(a2-3)Gal(b1-4)[Fuc(a1-3)]GlcNAc6S
# Procedure, shortened: as §1
# [14] = target: Neu5Ac(a2-3)Gal6S(b1-4)GlcNAc
# Procedure, shortened: as §1
# [15] = target: Neu5Ac(a2-3)Gal6S(b1-4)[Fuc(a1-3)]GlcNAc
# Procedure, shortened: as §1
# [16] = target: Neu5Ac(a2-3)GalNAc
# Procedure, shortened: as §1
# [17] = target: Neu5Ac(a2-3)GalNAc(b1-4)GlcNAc
# Procedure, shortened: as §1
# [18] = target: Neu5Ac(a2-3)[GalNAc(b1-4)]Gal(b1-4)Glc
# Procedure, shortened: as §1
# [19] = target: Neu5Ac(a2-3)[GalNAc(b1-4)]Gal(b1-4)GlcNAc
# Procedure, shortened: as §1
# [20] = target: Neu5Ac(a2-3)[Neu5Ac(a2-6)]GalNAc
# Procedure, shortened: as §1
# [21] = target: Neu5Ac(a2-6)Gal
# Procedure, shortened: as §1
# [22] = target: Neu5Ac(a2-6)Gal(b1-4)Glc
# Procedure, shortened: as §1
# [23] = target: Neu5Ac(a2-6)Gal(b1-4)GlcNAc
# Procedure, shortened: as §1
# [24] = target: Neu5Ac(a2-6)Gal(b1-4)GlcNAc(b1-3)Gal(b1-4)GlcNAc
# Procedure, shortened: as §1
# [25] = target: Neu5Ac(a2-6)Gal(b1-4)GlcNAc(b1-3)Gal(b1-4)[Fuc(a1-3)]GlcNAc(b1-3)Gal(b1-4)[Fuc(a1-3)]GlcNAc
# Procedure, shortened: as §1
# [26] = target: Neu5Ac(a2-6)Gal(b1-4)GlcNAc6S
# Procedure, shortened: as §1
# [27] = target: Neu5Ac(a2-6)GalNAc
# Procedure, shortened: as §1
# [28] = target: Neu5Ac(a2-6)GalNAc(b1-4)GlcNAc
# Procedure, shortened: as §1
# [29] = target: Neu5Ac(a2-8)Neu5Ac
# Procedure, shortened: as §1
# [30] = target: Neu5Ac(a2-8)Neu5Ac(a2-3)Gal(b1-4)Glc
# Procedure, shortened: as §1
# [31] = target: Neu5Ac(a2-8)Neu5Ac(a2-3)[GalNAc(b1-4)]Gal(b1-4)Glc
# Procedure, shortened: as §1
# [32] = target: Neu5Ac(a2-8)Neu5Ac(a2-8)Neu5Ac
# Procedure, shortened: as §1
# [33] = target: Neu5Ac(a2-8)Neu5Ac(a2-8)Neu5Ac(a2-3)Gal(b1-4)Glc
# Procedure, shortened: as §1
# [34] = target: Neu5Ac(a2-8)Neu5Ac(a2-8)Neu5Ac(a2-3)[GalNAc(b1-4)]Gal(b1-4)Glc
# Procedure, shortened: as §1
# [35] = target: Neu5Ac(a2-8)Neu5Ac(a2-8)Neu5Ac(a2-8)Neu5Ac(a2-3)[GalNAc(b1-4)]Gal(b1-4)Glc
# Procedure, shortened: as §1
# [36] = target: Neu5Ac(b1-6)GalNAc
# Procedure, shortened: as §1
# [37] = target: Neu5Ac(b2-6)Gal(b1-4)GlcNAc
# Procedure, shortened: as §1
# [38] = target: Neu5Ac9Ac(a2-6)Gal(b1-4)GlcNAc
# Procedure, shortened: as §1
# [39] = target: Neu5Gc(a2-3)Gal(b1-3)GlcNAc
# Procedure, shortened: as §1
# [40] = target: Neu5Gc(a2-3)Gal(b1-3)[Fuc(a1-4)]GlcNAc
# Procedure, shortened: as §1
# [41] = target: Neu5Gc(a2-3)Gal(b1-4)Glc
# Procedure, shortened: as §1
# [42] = target: Neu5Gc(a2-3)Gal(b1-4)GlcNAc
# Procedure, shortened: as §1
# [43] = target: Neu5Gc(a2-3)Gal(b1-4)[Fuc(a1-3)]GlcNAc
# Procedure, shortened: as §1
# [44] = target: Neu5Gc(a2-6)Gal(b1-4)GlcNAc
# Procedure, shortened: as §1
# [45] = target: Neu5Gc(a2-6)GalNAc
# Procedure, shortened: as §1
binder,measurement,setting,value
B1,glycan array binding signal (z-score),[1],-0.013
same,glycan array binding signal (z-score),[2],0.228
same,glycan array binding signal (z-score),[3],1.39
same,glycan array binding signal (z-score),[4],-0.236
same,glycan array binding signal (z-score),[5],0.816
same,glycan array binding signal (z-score),[6],2.26
same,glycan array binding signal (z-score),[7],0.762
same,glycan array binding signal (z-score),[8],2.84
same,glycan array binding signal (z-score),[9],-0.15
same,glycan array binding signal (z-score),[10],-0.417
same,glycan array binding signal (z-score),[11],-0.363
same,glycan array binding signal (z-score),[12],-0.422
same,glycan array binding signal (z-score),[13],-0.335
same,glycan array binding signal (z-score),[14],-0.405
same,glycan array binding signal (z-score),[15],-0.419
same,glycan array binding signal (z-score),[16],-0.392
same,glycan array binding signal (z-score),[17],-0.416
same,glycan array binding signal (z-score),[18],-0.394
same,glycan array binding signal (z-score),[19],-0.429
same,glycan array binding signal (z-score),[20],-0.38
same,glycan array binding signal (z-score),[21],-0.416
same,glycan array binding signal (z-score),[22],0.057
same,glycan array binding signal (z-score),[23],-0.338
same,glycan array binding signal (z-score),[24],-0.327
same,glycan array binding signal (z-score),[25],-0.388
same,glycan array binding signal (z-score),[26],0.009
same,glycan array binding signal (z-score),[27],-0.396
same,glycan array binding signal (z-score),[28],-0.382
same,glycan array binding signal (z-score),[29],-0.248
same,glycan array binding signal (z-score),[30],-0.415
same,glycan array binding signal (z-score),[31],-0.41
same,glycan array binding signal (z-score),[32],-0.344
same,glycan array binding signal (z-score),[33],3.2
same,glycan array binding signal (z-score),[34],-0.381
same,glycan array binding signal (z-score),[35],-0.362
same,glycan array binding signal (z-score),[36],-0.337
same,glycan array binding signal (z-score),[37],-0.356
same,glycan array binding signal (z-score),[38],-0.407
same,glycan array binding signal (z-score),[39],-0.422
same,glycan array binding signal (z-score),[40],-0.315
same,glycan array binding signal (z-score),[41],1.62
same,glycan array binding signal (z-score),[42],-0.416
same,glycan array binding signal (z-score),[43],-0.371
same,glycan array binding signal (z-score),[44],-0.315
same,glycan array binding signal (z-score),[45],-0.35
